{"source": "paper PMC4336329", "about": "(PLoS ONE, 2015)", "note": "Hit rate of the full screen: of about 310,000 compounds, about 2,200 (0.71%) showed an effect of 50% or more. Effects have a minus sign here. Some of the results follow."}
{"biological_target": "human ether-à-go-go-related gene (hERG) potassium channel (human, UniProt Q12809)", "sequence (Q12809 whole entry, looked up)": "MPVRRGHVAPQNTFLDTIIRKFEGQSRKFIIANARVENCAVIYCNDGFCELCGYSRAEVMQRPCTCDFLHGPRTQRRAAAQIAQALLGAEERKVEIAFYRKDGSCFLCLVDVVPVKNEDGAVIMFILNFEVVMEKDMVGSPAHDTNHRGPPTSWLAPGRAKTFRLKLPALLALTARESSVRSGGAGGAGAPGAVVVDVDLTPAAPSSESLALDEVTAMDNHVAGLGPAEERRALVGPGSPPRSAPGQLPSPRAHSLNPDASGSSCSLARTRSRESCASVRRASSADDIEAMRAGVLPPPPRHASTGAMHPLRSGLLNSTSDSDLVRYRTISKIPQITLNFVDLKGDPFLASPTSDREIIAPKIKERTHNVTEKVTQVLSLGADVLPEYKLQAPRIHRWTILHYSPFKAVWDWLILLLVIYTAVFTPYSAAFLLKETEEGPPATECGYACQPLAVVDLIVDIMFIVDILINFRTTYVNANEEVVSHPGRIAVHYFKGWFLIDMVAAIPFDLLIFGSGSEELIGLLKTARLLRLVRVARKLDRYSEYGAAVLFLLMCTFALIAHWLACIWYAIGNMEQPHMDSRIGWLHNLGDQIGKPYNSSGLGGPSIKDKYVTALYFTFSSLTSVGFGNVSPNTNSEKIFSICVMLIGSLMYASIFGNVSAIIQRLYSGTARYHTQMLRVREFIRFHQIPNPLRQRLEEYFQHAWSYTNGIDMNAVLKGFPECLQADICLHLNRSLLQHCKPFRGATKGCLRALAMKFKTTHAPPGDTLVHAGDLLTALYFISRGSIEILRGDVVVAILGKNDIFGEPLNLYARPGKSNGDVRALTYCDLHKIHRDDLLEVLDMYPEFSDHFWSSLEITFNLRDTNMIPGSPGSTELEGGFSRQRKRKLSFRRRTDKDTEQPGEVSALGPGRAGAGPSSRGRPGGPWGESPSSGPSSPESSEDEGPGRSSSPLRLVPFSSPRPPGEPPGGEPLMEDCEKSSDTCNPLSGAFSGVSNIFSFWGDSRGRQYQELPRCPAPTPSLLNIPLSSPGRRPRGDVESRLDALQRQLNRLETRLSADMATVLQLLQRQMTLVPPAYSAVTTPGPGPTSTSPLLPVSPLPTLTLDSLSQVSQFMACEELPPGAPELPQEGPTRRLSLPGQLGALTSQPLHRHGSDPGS", "assay": "primary screen, population patch clamp on CHO cells stably expressing hERG", "units": {"hERG current change (%, negative = inhibition) at 1uM": "%"}}
{"smiles": "COc1ccc(NC(=O)CSc2nnnn2C)cc1S(=O)(=O)N1CCCCC1", "hERG current change (%, negative = inhibition) at 1uM": 7.46}
{"smiles": "O=c1c2ccc(Cl)cc2nc(-c2cccc(C(F)(F)F)c2)n1O", "hERG current change (%, negative = inhibition) at 1uM": -2.49}
{"smiles": "Cc1ccc(CN2CC(C(=O)NCCC3=CCCCC3)CC2=O)cc1", "note": "(stereo not drawn)", "hERG current change (%, negative = inhibition) at 1uM": 0.947}
{"smiles": "CCCCNS(=O)(=O)c1ccc2nc(-c3cccnc3)cc(C(=O)NCC(OC)OC)c2c1", "hERG current change (%, negative = inhibition) at 1uM": 0.0455}
{"smiles": "Cc1ccc(OCc2cc(C(=O)Nc3ccccc3)oc2C)cc1", "hERG current change (%, negative = inhibition) at 1uM": 11.3}
{"smiles": "O=S(=O)(c1ccccc1)N(Cc1ccccn1)Cc1ccccn1", "hERG current change (%, negative = inhibition) at 1uM": 19.1}
{"smiles": "O=C(NCCCN1CCCC1=O)Nc1cc(Cl)ccc1Cl", "hERG current change (%, negative = inhibition) at 1uM": 14.8}
{"smiles": "O=C(/C=C/c1ccc(Cl)cc1Cl)NCCN1CCOCC1", "hERG current change (%, negative = inhibition) at 1uM": -7.32}
{"smiles": "CN1CCN(c2ccc(S(=O)(=O)N3CCCCC3)cc2[N+](=O)[O-])CC1", "hERG current change (%, negative = inhibition) at 1uM": -13.9}
{"smiles": "COc1cccc2cc(C(=O)Nc3ccccc3C)/c(=N/NS(=O)(=O)c3ccccc3)oc12", "hERG current change (%, negative = inhibition) at 1uM": 12.9}
{"smiles": "CCC(CO)NCc1ccc(OCC(=O)Nc2cccc(C(F)(F)F)c2)c(OC)c1", "note": "(stereo not drawn)", "hERG current change (%, negative = inhibition) at 1uM": -10.7}
{"smiles": "COc1cccc(C(=O)C2CCCN(Cc3cn(C)nc3-c3ccccc3)C2)c1", "note": "(stereo not drawn)", "hERG current change (%, negative = inhibition) at 1uM": -18.2}
{"smiles": "Cc1ccc(Cl)cc1Nc1nc(-c2sc(NC(=O)c3ccco3)nc2C)cs1", "hERG current change (%, negative = inhibition) at 1uM": 5.61}
{"smiles": "CCCCn1c(C(C)NC(=O)COC)nc2ccccc21", "note": "(stereo not drawn)", "hERG current change (%, negative = inhibition) at 1uM": -13.4}
{"smiles": "COc1ccc(S(=O)(=O)N2CCC(N3CCCC3)CC2)cc1", "hERG current change (%, negative = inhibition) at 1uM": 7.53}
{"smiles": "CC/C(=N\\NC(=O)Nc1ccccc1)c1ccccc1", "hERG current change (%, negative = inhibition) at 1uM": -1.08}
{"smiles": "O=C(NCCCN1CCOCC1)c1ccc(-c2ccc(Cl)cc2)o1", "hERG current change (%, negative = inhibition) at 1uM": 7.36}
{"smiles": "O=C(CN1C(=O)c2ccccc2C1=O)Nc1cccc(Cl)c1", "hERG current change (%, negative = inhibition) at 1uM": 16}
{"smiles": "O=C(CNC(=O)c1ccco1)OCc1ccc(Br)cc1", "hERG current change (%, negative = inhibition) at 1uM": 12.5}
{"smiles": "COc1ccc(-n2nnnc2-c2cnc3cc4c(cc3c2C)OCO4)cc1", "hERG current change (%, negative = inhibition) at 1uM": 9.53}
{"smiles": "Cc1cc(-c2csc(N)n2)c(C)n1-c1ccccc1", "hERG current change (%, negative = inhibition) at 1uM": 3.84}
{"smiles": "Cc1cccc(Oc2cnn(C(C)(C)C)c(=O)c2Cl)c1", "hERG current change (%, negative = inhibition) at 1uM": 4.42}
{"smiles": "CCCCCCN(CCCCCC)C(=O)Cc1c(-c2ccc(F)cc2)[nH]c2ccccc12", "hERG current change (%, negative = inhibition) at 1uM": 18.3}
{"smiles": "CCn1c(C(=O)N2CCc3ccccc3C2)cc2oc3ccccc3c21", "hERG current change (%, negative = inhibition) at 1uM": 18.1}
{"smiles": "CCCc1cc(=O)n2[nH]c(NCc3cccs3)nc2n1", "hERG current change (%, negative = inhibition) at 1uM": 10.2}
{"smiles": "Cc1ccc(CSc2ncnc3ccccc23)cc1", "hERG current change (%, negative = inhibition) at 1uM": 6.86}
{"smiles": "COc1c(O)cccc1/C=N/NC(=O)Cn1ccnc1C", "hERG current change (%, negative = inhibition) at 1uM": 7.84}
{"smiles": "COc1ccc(-c2nn(-c3ccccc3)cc2/C=N/N=C(N)N)cc1OC", "hERG current change (%, negative = inhibition) at 1uM": 8.68}
{"smiles": "Cc1ccc(NC(=O)COC(=O)c2cc(Cl)ccc2[N+](=O)[O-])c(C)c1", "hERG current change (%, negative = inhibition) at 1uM": 1.75}
{"smiles": "O=C(O)CCn1c(SCc2cccc3ccccc23)nc2ccccc21", "hERG current change (%, negative = inhibition) at 1uM": 8.52}
{"smiles": "CC(C)(C)c1csc(Sc2ccc([N+](=O)[O-])cn2)n1", "hERG current change (%, negative = inhibition) at 1uM": 7.57}
{"smiles": "Cc1nnc(SCc2cc([N+](=O)[O-])cc3c2OCOC3)n(N)c1=O", "hERG current change (%, negative = inhibition) at 1uM": 13}
{"smiles": "CC(NC(=O)c1cc(S(=O)(=O)N(C)C)ccc1Cl)C1CC2CCC1C2", "note": "(stereo not drawn)", "hERG current change (%, negative = inhibition) at 1uM": 14.2}
{"smiles": "COc1ccc(OCc2nc3ccc(S(=O)(=O)Nc4ccccc4Cl)cc3[nH]2)cc1", "hERG current change (%, negative = inhibition) at 1uM": 8.76}
{"smiles": "COc1ccc2c([N+](=O)[O-])c(N3CCCC3)[nH]c2c1", "hERG current change (%, negative = inhibition) at 1uM": 9.6}
{"smiles": "COC(=O)c1ccc(C(=O)OC)c(NC(=S)N2CCN(C(=O)C3CCCO3)CC2)c1", "note": "(stereo not drawn)", "hERG current change (%, negative = inhibition) at 1uM": 7.79}
{"smiles": "O=C(O)CCCn1ccc2cc(S(=O)(=O)N3CCCC3)ccc21", "hERG current change (%, negative = inhibition) at 1uM": 15.7}
{"smiles": "Cn1nnnc1SCC1=C(C(=O)O)N2C(=O)C(NC(=O)Cn3nc(C(F)F)cc3C3CC3)C2SC1", "note": "(stereo not drawn)", "hERG current change (%, negative = inhibition) at 1uM": 10}
{"smiles": "NC(=O)c1c(NC(=O)CCCC(=O)O)sc2c1CCCCCC2", "hERG current change (%, negative = inhibition) at 1uM": 5.98}
{"smiles": "Cc1cccc[n+]1CC(=O)c1ccc(Cl)cc1.[Cl-]", "hERG current change (%, negative = inhibition) at 1uM": 17.9}
{"smiles": "Brc1ccc(-c2noc3c2-c2nc(C4CCCCC4)sc2CC3)cc1", "hERG current change (%, negative = inhibition) at 1uM": 16.9}
{"smiles": "CC[C@@]12C(=O)N(c3ccc(OC)cc3)C(=O)N1[C@H](c1cccc(C)c1)[C@@H]1C(=O)N(Cc3ccccc3)C(=O)[C@@H]12", "hERG current change (%, negative = inhibition) at 1uM": -3.71}
{"smiles": "Cc1cc(C)n(CC(O)COc2ccc3ccccc3c2)n1", "note": "(stereo not drawn)", "hERG current change (%, negative = inhibition) at 1uM": 7.08}
{"smiles": "COc1ccc(NC(=O)Cc2ccc(Cl)cc2)cc1S(=O)(=O)N1CCCCC1", "hERG current change (%, negative = inhibition) at 1uM": -1.25}
{"smiles": "Cc1ccc(Oc2ccc(-c3nc(N)nc(N)n3)cc2)cc1C", "hERG current change (%, negative = inhibition) at 1uM": 2.33}
